# Values joined by “and” are separate entries in the source; they are usually repeats but may differ in a detail not shown here. Equal values may be shown once. ± gives the standard deviation of the averaged measurements. Over roughly 2,900 compounds, “NF-kB SEAP reporter activity, fold change vs agonist alone” has its median near 0.99; the highest 2% begin near 2.6. Some of the results follow.
# How the values were obtained:
# RAW-Dual [1] = assay: NF-kB SEAP reporter activity, fold change vs agonist alone; cytotoxicity flag (confluency mask): not cytotoxic; higher = enhanced NF-kB activity
# Outline: (§1)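 Library stock was pin-tooled at 50 nL into 384-well plates of RAW-Dual macrophages (50,000 cells/well, DMEM), followed 1 h later by a PRR agonist, and the cells were kept at 37 °C, 5% CO2. Supernatant collected after 20 hours was read for IRF by QuantiLuc luminescence and for NF-κB by QuantiBlue absorbance at 620 nm. Reporter activity is fold change over agonist-alone wells, and a well counted as cytotoxic when its IncuCyte confluency was below 70% of agonist controls in both mask sets.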
# RAW-Dual [2] = assay: NF-kB SEAP reporter activity, fold change vs agonist alone; higher = enhanced NF-kB activity; conditions: library stock concentration (final ~1000-fold dilution): 10 mM
# Outline: as §1
# RAW-Dual [3] = assay: NF-kB SEAP reporter activity, fold change vs agonist alone; cytotoxicity flag (confluency mask): cytotoxic (confluency <70% of control); higher = enhanced NF-kB activity
# Outline: as §1
# [4] = agonist: ODN 1826 (TLR9) 0.5 ug/mL
# [5] = agonist: Pam2CSK4 (TLR2/6) 0.1 ug/mL
# [6] = agonist: Pam3CSK4 (TLR2/1) 0.1 ug/mL
# [7] = cytotoxicity flag (confluency mask): not cytotoxic, agonist: Imiquimod (TLR7) […]
# [8] = cytotoxicity flag (confluency mask): not cytotoxic, agonist: MPLA (TLR4) […]
# [9] = cytotoxicity flag (confluency mask): cytotoxic (confluency <70% of control), agonist: Imiquimod (TLR7) […]
# [10] = cytotoxicity flag (confluency mask): cytotoxic (confluency <70% of control), agonist: MPLA (TLR4) […]
structure (smiles),measurement,setting,value
O=C(NCC1CN(c2ccc(N3CCOCC3=O)cc2)C(=O)O1)c1ccc(Cl)s1 (centres undefined) (library stock concentration (final ~1000-fold dilution): 10 mM),NF-kB SEAP reporter activity,RAW-Dual [1]; agonist: LPS (TLR4) 0.1 ug/mL,1.04
same,NF-kB SEAP reporter activity,RAW-Dual [1]; [4],1.07
same,NF-kB SEAP reporter activity,RAW-Dual [1]; [5],1.04
same,NF-kB SEAP reporter activity,RAW-Dual [1]; [6],1.25
O=C(NCC1CN(c2ccc(N3CCOCC3=O)cc2)C(=O)O1)c1ccc(Cl)s1 (centres undefined),NF-kB SEAP reporter activity,RAW-Dual [2]; [7],1.04
same,NF-kB SEAP reporter activity,RAW-Dual [2]; [8],1.01
Nc1ccc(S(=O)(=O)Nc2ccnn2-c2ccccc2)cc1,NF-kB SEAP reporter activity,RAW-Dual [2]; [7],1.05
same,NF-kB SEAP reporter activity,RAW-Dual [2]; [8],1.04
Nc1ccc(S(=O)(=O)Nc2ccnn2-c2ccccc2)cc1 (library stock concentration (final ~1000-fold dilution): 10 mM),NF-kB SEAP reporter activity,RAW-Dual [1]; agonist: LPS (TLR4) 0.1 ug/mL,1.01
same,NF-kB SEAP reporter activity,RAW-Dual [1]; [4],0.97
same,NF-kB SEAP reporter activity,RAW-Dual [1]; [5],1.06
same,NF-kB SEAP reporter activity,RAW-Dual [1]; [6],1
Cc1ccc(NC(=O)c2ccc(CN3CCC(N(C)C)C3)c(C(F)(F)F)c2)cc1Nc1nccc(-c2cncnc2)n1 (centres undefined) (library stock concentration (final ~1000-fold dilution): 10 mM),NF-kB SEAP reporter activity,RAW-Dual [3]; agonist: LPS (TLR4) 0.1 ug/mL,0.247
same,NF-kB SEAP reporter activity,RAW-Dual [3]; [4],0.833
same,NF-kB SEAP reporter activity,RAW-Dual [3]; [5],1.4
same,NF-kB SEAP reporter activity,RAW-Dual [3]; [6],1.16
Cc1ccc(NC(=O)c2ccc(CN3CCC(N(C)C)C3)c(C(F)(F)F)c2)cc1Nc1nccc(-c2cncnc2)n1 (centres undefined),NF-kB SEAP reporter activity,RAW-Dual [2]; [9],2.42
same,NF-kB SEAP reporter activity,RAW-Dual [2]; [10],1.36
CCOCC(O)COc1ccc(NC(=O)CC[S+](C)C)cc1 (centres undefined),NF-kB SEAP reporter activity,RAW-Dual [2]; [7],1.33
same,NF-kB SEAP reporter activity,RAW-Dual [2]; [8],1.23
CCOCC(O)COc1ccc(NC(=O)CC[S+](C)C)cc1 (centres undefined) (library stock concentration (final ~1000-fold dilution): 10 mM),NF-kB SEAP reporter activity,RAW-Dual [1]; agonist: LPS (TLR4) 0.1 ug/mL,1.37
same,NF-kB SEAP reporter activity,RAW-Dual [1]; [4],1.46
same,NF-kB SEAP reporter activity,RAW-Dual [1]; [5],1.75
same,NF-kB SEAP reporter activity,RAW-Dual [1]; [6],2.02
O=C(NCCCNc1nc(Nc2cccc(CN3CCOCC3)c2)ncc1C1CC1)C1CCC1 (library stock concentration (final ~1000-fold dilution): 10 mM),NF-kB SEAP reporter activity,RAW-Dual [1]; agonist: LPS (TLR4) 0.1 ug/mL,3.77 ± 1.8
same,NF-kB SEAP reporter activity,RAW-Dual [1]; [6],4.25 and 3.71
CC12CCC(CC1)C(C)(C)O2 (library stock concentration (final ~1000-fold dilution): 10 mM),NF-kB SEAP reporter activity,RAW-Dual [1]; agonist: LPS (TLR4) 0.1 ug/mL,0.942
same,NF-kB SEAP reporter activity,RAW-Dual [1]; [4],0.982
same,NF-kB SEAP reporter activity,RAW-Dual [1]; [5],1.06
same,NF-kB SEAP reporter activity,RAW-Dual [1]; [6],1.11
CC12CCC(CC1)C(C)(C)O2,NF-kB SEAP reporter activity,RAW-Dual [2]; [7],0.906
same,NF-kB SEAP reporter activity,RAW-Dual [2]; [8],1.01
COc1ccc2cc(C(C)C(=O)O)ccc2c1 (centres undefined) (library stock concentration (final ~1000-fold dilution): 10 mM),NF-kB SEAP reporter activity,RAW-Dual [1]; agonist: LPS (TLR4) 0.1 ug/mL,1.09 and 0.938
same,NF-kB SEAP reporter activity,RAW-Dual [1]; [4],0.966 and 0.971
same,NF-kB SEAP reporter activity,RAW-Dual [1]; [5],1.1 and 1.26
same,NF-kB SEAP reporter activity,RAW-Dual [1]; [6],0.858 and 1.04
COc1ccc2cc(C(C)C(=O)O)ccc2c1 (centres undefined),NF-kB SEAP reporter activity,RAW-Dual [2]; [7],0.931
Cc1nccn1CC1CCc2c(c3ccccc3n2C)C1=O.Cl.O.O (centres undefined),NF-kB SEAP reporter activity,RAW-Dual [2]; [10],0.921
Cc1nccn1CC1CCc2c(c3ccccc3n2C)C1=O.Cl.O.O (centres undefined) (library stock concentration (final ~1000-fold dilution): 10 mM),NF-kB SEAP reporter activity,RAW-Dual [3]; agonist: LPS (TLR4) 0.1 ug/mL,0.796
same,NF-kB SEAP reporter activity,RAW-Dual [3]; [4],0.803
same,NF-kB SEAP reporter activity,RAW-Dual [3]; [5],0.949
same,NF-kB SEAP reporter activity,RAW-Dual [3]; [6],0.871
COc1cc(C=CC(=O)OCC[N+](C)(C)C)cc(OC)c1O (library stock concentration (final ~1000-fold dilution): 10 mM),NF-kB SEAP reporter activity,RAW-Dual [1]; agonist: LPS (TLR4) 0.1 ug/mL,1.08
same,NF-kB SEAP reporter activity,RAW-Dual [1]; [4],1.04
same,NF-kB SEAP reporter activity,RAW-Dual [1]; [5],1.06
same,NF-kB SEAP reporter activity,RAW-Dual [1]; [6],1.2
COc1cc(C=CC(=O)OCC[N+](C)(C)C)cc(OC)c1O,NF-kB SEAP reporter activity,RAW-Dual [2]; [7],0.966
same,NF-kB SEAP reporter activity,RAW-Dual [2]; [8],1.03
Cc1ccc(CN(CC(O)COc2cccc3[nH]ccc23)C(C)(C)C)cc1 (centres undefined),NF-kB SEAP reporter activity,RAW-Dual [2]; [9],1.58
same,NF-kB SEAP reporter activity,RAW-Dual [2]; [10],1.76
Cc1ccc(CN(CC(O)COc2cccc3[nH]ccc23)C(C)(C)C)cc1 (centres undefined) (library stock concentration (final ~1000-fold dilution): 10 mM),NF-kB SEAP reporter activity,RAW-Dual [3]; agonist: LPS (TLR4) 0.1 ug/mL,1.63
same,NF-kB SEAP reporter activity,RAW-Dual [3]; [4],1.59
same,NF-kB SEAP reporter activity,RAW-Dual [3]; [5],1.2
same,NF-kB SEAP reporter activity,RAW-Dual [3]; [6],1.79
